Measurements published in PubChem BioAssay AID624417 (National Center for Advancing Translational Sciences (NCATS), 2012).
Hit rate of the full screen: of about 410,000 compounds, about 6,400 (1.6%) were called active. Inconclusive means that the source gave no clear call. Such entries were picked first, then a sample of the others. Calls come from the whole dose curve; as a rule, active = well fitted inhibition curve with a large enough effect; inconclusive = small, poorly fitted or top-dose-only effect; inactive = no such curve, though single readings can be large or run the other way. Potencies of inconclusive entries are left out as doubtful fits.

Target: Glucagon-like peptide 1 receptor (Homo sapiens) (UniProt P43220)
Assay: qHTS of GLP-1 Receptor Inverse Agonists (Inhibition Mode); note: nearly all actives have a fitted effect of over 55% in size
Conditions: HEK293 GLP-1R CRE-luciferase, luminescence, 24 h, GLP-1R form is constitutively active; activity change, negative = inhibition: at 38.3 µM (top of the series) unless noted
Summary of the method: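 Inverse agonists were sought by their lowering of basal cAMP reporter luciferase output in HEK293 cells stably carrying constitutively active human GLP-1R, after 24 h compound treatment.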
% is set by controls: 0 for no effect and ±100 for the full control effect; potency is the fitted concentration of half-maximal effect; tags give direction and shape of the fitted curve.

Chain of UniProt P43220 (P43220 whole entry, looked up): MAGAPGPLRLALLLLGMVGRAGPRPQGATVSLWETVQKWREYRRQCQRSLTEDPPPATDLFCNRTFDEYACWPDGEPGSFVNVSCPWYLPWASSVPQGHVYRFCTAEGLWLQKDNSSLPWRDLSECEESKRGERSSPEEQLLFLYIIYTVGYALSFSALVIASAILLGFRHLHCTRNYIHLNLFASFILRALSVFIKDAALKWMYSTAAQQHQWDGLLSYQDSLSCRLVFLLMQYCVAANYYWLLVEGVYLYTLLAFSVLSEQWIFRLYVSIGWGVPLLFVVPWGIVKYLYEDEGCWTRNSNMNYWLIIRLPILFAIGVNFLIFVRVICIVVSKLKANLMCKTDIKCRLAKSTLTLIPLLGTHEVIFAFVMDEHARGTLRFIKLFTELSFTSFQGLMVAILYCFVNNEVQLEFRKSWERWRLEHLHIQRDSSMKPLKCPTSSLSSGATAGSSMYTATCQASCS

| Structure (SMILES) | Potency | activity change, negative = inhibition |
| --- | --- | --- |
| CC(=O)Nc1ccc(S(=O)(=O)NC2=C(N3CCN(Cc4ccccc4)CC3)C(=O)c3ccccc3C2=O)cc1 | inconclusive [inhibitor, single point] |  |
| Cc1ccsc1/C=N/NC(=O)CSCc1ccc(Cl)cc1 | inconclusive [inhibitor, partial curve, poor fit] |  |
| O=C(c1ccc(Cn2cc(Br)cn2)cc1)N1N=C(C(F)F)CC1(O)C(F)F (configuration not stated) | inconclusive [inhibitor, partial curve, poor fit] |  |
| Cc1ccc(C(=O)Nc2cccc(C(=O)NC3CCCC3)c2)cc1 | inconclusive [inhibitor, partial curve, poor fit] |  |
| CCOc1ccc(C(C(=O)NCC2CCCO2)N(C(=O)c2snc(C(N)=O)c2N)c2ccc(F)cc2)cc1 (configuration not stated) |  | inactive: -23.8% |
| Cc1ccc(C)c(C(=O)C(C)OC(=O)CN2C(=O)NC3(CC(C)CC(C)(C)C3)C2=O)c1 (configuration not stated) | inconclusive [inhibitor, single point] |  |
| O=C1N=c2ccc(Br)cc2=C1c1sc(=S)n(NS(=O)(=O)c2ccccc2)c1O | inconclusive [inhibitor, partial curve, poor fit] |  |
| CCN(CC)C(=O)[C@H]1C[C@H](CC(=O)NCCC2=CCCCC2)C(=O)N2CCc3c([nH]c4ccc(Cl)cc34)[C@]12C | inconclusive [inhibitor, partial curve, poor fit] |  |
| Cc1ccc2oc(=O)n(Cc3ccccc3Cl)c2c1 | inconclusive [inhibitor, partial curve, poor fit] |  |
| c1ccc2c(c1)CCN(c1ncnc3nc[nH]c13)C2 |  | inactive: 59.1% |
| CC(Sc1nc2ccccc2[nH]1)C(=O)Nc1ccccc1F (configuration not stated) | inconclusive [inhibitor, partial curve, poor fit] |  |
| O=C(CSc1nnc(-c2ccc(Cl)cc2Cl)n1C1CCCCC1)N1CCCC1 | inconclusive [inhibitor, single point] |  |
| Cc1ccc(CNS(=O)(=O)c2ccc3c(c2)N(C)CCO3)cc1 | inconclusive [inhibitor, partial curve, poor fit] |  |
| Cc1ncsc1CCOC(=O)C1C2CC3CC(C2)CC1C3 (configuration not stated) | inconclusive [inhibitor, partial curve, poor fit] |  |
| CCc1ccc(NS(=O)(=O)c2cc(OC)ccc2OC)cc1 | inconclusive [inhibitor, single point] |  |
| O=C(CS(=O)CC(=O)NC12CC3CC(CC(C3)C1)C2)Nc1ccc(F)cc1 (configuration not stated) | inconclusive [inhibitor, partial curve, poor fit] |  |
| Cc1ccc2nc(N(CCCN(C)C)C(=O)CS(=O)(=O)c3ccccc3)sc2c1 | inconclusive [inhibitor, partial curve, poor fit] |  |
| CN(CCCNC(=O)CCc1cn(C)c2ccccc12)C1CCCCC1 | inconclusive [inhibitor, partial curve, poor fit] |  |
| CCCc1c(OCCCOc2ccc(OCC(=O)O)cc2)ccc(C(C)=O)c1O |  | inactive: 7.72% |
| Cc1ccc(S(=O)(=O)c2c(N)n(CC3CCOC3)c3nc4ccccc4nc23)cc1 (configuration not stated) | inconclusive [inhibitor, partial curve, poor fit] |  |
| Cc1ccc(C(=O)OCC(=O)N(Cc2ccccc2)C(C)C)cc1C | inconclusive [inhibitor, single point] |  |

| Structure (SMILES) | Potency | activity change, negative = inhibition |
| --- | --- | --- |
| COc1ccc(CNCCC(c2ccc(OC(C)C)cc2)C(C)C)cc1OC (configuration not stated) |  | inactive: 0% |
| CCOc1ccc(NC(=O)C2CC(=O)N(c3cc(C)cc(C)c3)C2)cc1 (configuration not stated) | inconclusive [inhibitor, partial curve, poor fit] |  |
| COC(=O)c1sc(S(=O)(=O)Nc2ccc(C)c(C)c2)c(C(=O)OC)c1C | inconclusive [inhibitor, single point] |  |
| CCOC(=O)C1=C(C)N(C)C(C)=C(C(=O)OCC)C1c1ccc(Cl)cc1 | inconclusive [inhibitor, partial curve, poor fit] |  |
| Cc1ccc(/C=N/n2c(-c3cccnc3)n[nH]c2=S)s1 |  | inactive: 0.559% |
| CC(C)=N/N=C1\NC(=O)C(C)S1 (configuration not stated) |  | inactive: -18.4% |
| CC(C)N(C(=O)CN1CCN(S(=O)(=O)c2ccc(Br)s2)CC1)C(C)C | inconclusive [inhibitor, single point] |  |
| Cc1ccccc1S(=O)(=O)Cc1ccc(C(=O)NC2CCCCC2C)o1 (configuration not stated) | inconclusive [inhibitor, partial curve, poor fit] |  |
| COc1ccc([C@H]2CC(=O)C=C(c3ccc(OC)cc3OC)C2)cc1 | inconclusive [inhibitor, full curve, poor fit] |  |
| O=C(CCCNC(=O)/C(=C/c1ccccc1F)NC(=O)c1ccccc1)OCc1ccccc1 | inconclusive [inhibitor, partial curve] |  |
| CCCOc1ccc(F)cc1-c1cc(C(=O)NCc2ccco2)[nH]n1 | inconclusive [inhibitor, single point] |  |
| COc1cccc(S(=O)(=O)NCc2ccc(C(=O)N3CCN(Cc4ccccc4)CC3)cc2)c1 | inconclusive [inhibitor, single point] |  |
| Cc1ccc(-c2csc3ncnc(Nc4ccc(N5CCOCC5)cc4)c23)cc1 | inconclusive [inhibitor, partial curve, poor fit] |  |
| Cc1ccc(OCC(=O)c2cc(C)n(C)c2C)c([N+](=O)[O-])n1 |  | inactive: 0.469% |
| Cc1oc(-c2ccccc2Cl)nc1CS(=O)(=O)CC(=O)NC(C)c1ccccc1 (configuration not stated) | inconclusive [inhibitor, single point] |  |
| Cc1ccccc1Cn1c2ccccc2c2cnn(CC(=O)N3CCN(c4ccccc4)CC3)c(=O)c21 | inconclusive [inhibitor, partial curve, poor fit] |  |
| CCC(C(=O)Nc1ccccc1OC)n1c(C(=O)OC)cc2sc(Cl)cc21 (configuration not stated) | inconclusive [inhibitor, partial curve, poor fit] |  |
| COc1ccc(Nc2nc(NCc3ccco3)nc(N3CCOCC3)n2)cc1 | inconclusive [inhibitor, single point] |  |
| CCC(=O)N1CCN(c2ccccc2NC(=S)NC(=O)c2ccco2)CC1 | inconclusive [inhibitor, single point] |  |
| CC(=O)c1ccc(S(=O)(=O)N(C)CC(=O)Nc2cc(C)on2)cc1 |  | inactive: 22.6% |
| c1ccc(SCc2cc(-c3ccccc3)no2)cc1 | inconclusive [inhibitor, single point] |  |

| Structure (SMILES) | Potency | activity change, negative = inhibition |
| --- | --- | --- |
| COc1ccc(-c2noc(CSc3nnc(Cc4ccccc4)n3-c3cccc(C)c3)n2)cc1 | inconclusive [inhibitor, partial curve, poor fit] |  |
| COc1cccc(/C=C/C2=CC(C)(C)NC(=S)N2)c1 | inconclusive [inhibitor, single point] |  |
| CCC(=O)Nc1ccc(NC(=O)CSc2nnnn2-c2ccc(OC)cc2)cc1 |  | inactive: -2.99% |
| CCOc1cc(CNCCSc2nnnn2C)cc(Br)c1OCc1ccccc1F | inconclusive [inhibitor, single point] |  |
| CCN1C(=O)[C@H]2[C@@H](c3ccc(-c4ccccc4)cc3)N[C@@](CC(C)C)(C(=O)OC)[C@H]2C1=O | inconclusive [inhibitor, single point] |  |
| O=C(C(=Cc1ccc(F)cc1)c1ccccc1)c1ccc(O)cc1 | inconclusive [inhibitor, single point] |  |
| O=C(Nc1ccc2c(c1)CN(C(=O)Nc1ccc(F)cc1)CC2)c1ccccn1 | inconclusive [inhibitor, single point] |  |
| CCOC(=O)c1sc2nc(C)nc(SCC(=O)N(CC)C3CCS(=O)(=O)C3)c2c1C (configuration not stated) |  | inactive: 25.5% |
| COc1cccc(Oc2cn[nH]c2-c2ccc(OC)cc2O)c1 | inconclusive [inhibitor, partial curve, poor fit] |  |
| O=C(O)c1ccccc1SC1CC(=O)N(c2cccc3ccccc23)C1=O (configuration not stated) |  | inactive: -14.1% |
| c1ccc(NCCC2OCC3(CO2)COC(CCNc2ccccc2)OC3)cc1 (configuration not stated) | inconclusive [inhibitor, partial curve, poor fit] |  |
| COc1ccc([C@H]2CC(=O)C=C(c3cc(F)ccc3OC)C2)cc1 | inconclusive [inhibitor, partial curve] |  |
| COc1cc(OC)c2c(OC)cccc2n1 |  | inactive: 19.1% |
| CN(C)CCNC(=O)/C(=C/c1ccc(-c2cccc([N+](=O)[O-])c2)o1)NC(=O)c1ccccc1 | inconclusive [inhibitor, single point] |  |
| O=C(CN1C(=O)c2ccccc2S1(=O)=O)N1CCc2ccccc2C1 | inconclusive [inhibitor, partial curve, poor fit] |  |
| O=C(c1cc2c(s1)-c1ccccc1OC2)N1CCN(c2ccc(F)cc2)CC1 | inconclusive [inhibitor, single point] |  |
| NNc1nc2ccc(Cl)cc2s1 | inconclusive [inhibitor, partial curve] |  |
| COC(=O)Cn1c(=O)c2c(n(Cc3ccccc3)c1=O)N/C(=C/c1ccc(Br)cc1)C2=O | inconclusive [inhibitor, partial curve, poor fit] |  |
| C/C(Cn1nnc([N+](=O)[O-])n1)=N\NC(=O)c1ccc(Cl)c(Cl)c1 |  | inactive: -16.8% |
| O=C(NCCc1ccccc1)c1cnc2sc(N3CCCCC3)nn2c1=O |  | inactive: 2.12% |
